From PubChem BioAssay AID1508624 (National Center for Advancing Translational Sciences (NCATS), 2021)
The campaign covered roughly 48,000 compounds. About 120 (0.25%) were called active. About 4% were inconclusive and are not listed. The call rests on the fitted dose curve; in most records, active means well fitted activation curve with a large enough effect; inconclusive means small, poorly fitted or top-dose-only effect, or another doubt; inactive means no such curve, though single readings can be large or run the other way. The list shows a part of the results.

Assay: Primary qHTS for Identification of Small Molecule Activators of Huntingtin-Antisense Promoter Activity; further: nearly all actives have a fitted effect of over 55% in size
Settings: HEK293 HTT-AS promoter firefly luciferase reporter, 24 h; series mostly up to 57.5 µM; activity change, positive = activation: at the top concentration
Method in brief: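 HEK293 cells carrying firefly luciferase reporters were seeded at 2,500 per well in Opti-MEM and cultured for 24 h. They were then treated with compounds at up to 57.5 uM final for 24 h at 37 degrees C before Dual-Glo luminescence readout.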

Activity change, positive = activation, inactive:
O=c1[nH]c(SCc2ccc(Br)cc2)nc2c1CCCC2 -5.43%
Cc1ccc(S(=O)(=O)c2nnn3c2nc(N2CCN(c4ccccc4F)CC2)c2ccccc23)cc1C -10.1%
CC(NC(=O)Cn1c(-c2cccs2)cc2cc(F)ccc21)c1ccccc1 (stereo not given) -21.3%
O=C(NC1CC(=O)N(c2ccc(Cl)cc2)C1)c1cccs1 (stereo not given) -24.7%
Cc1cc(N2CCC(C)CC2)nc2ccc(NC(=O)/C=C/c3cccc(Cl)c3)cc12 -9.58%
CCOc1ccc(-c2c(C)nn3c(C)c(C(=O)NCc4ccc(C)o4)cnc23)cc1OCC -12.5%
CC(C)c1ccc(Nc2c(-c3ccccc3O)nc3cnccn23)cc1 -26.8%
Cc1ccc2nc(NC(=O)c3cc(=O)c4cc(Cl)ccc4o3)sc2c1 -1.51%
CCc1ccccc1NC(=O)CSc1nnc(CC)c(CC)n1 -7.28%
O=C(NCCc1ccc(Cl)cc1)c1ccc(CS(=O)(=O)Cc2ccccc2F)o1 -27.4%
CC(=O)N1CCc2c(sc3c2c(=O)n(-c2ccc(C)cc2)c(=O)n3CC(=O)Nc2ccccc2)C1 -7.91%
Cn1c(Oc2ccc(F)cc2)nc2c1c(=O)n(Cc1ccccc1Cl)c(=O)n2C -44.7%
COc1ccccc1NC(=O)c1c(NC(=O)c2ccccc2F)sc2c1CCC2 -3.71%
COC(=O)c1c(NC(=O)c2ccccc2C(=O)O)sc2c1CCCC2 -4.53%
Cc1ccc(-c2cc(C(=O)NCc3ccccc3)c3c(-c4ccc(C)cc4)[nH]nc3n2)cc1 -6.75%
COc1ccc(Cn2ccc3nc(C)c(C(=O)Nc4ccc(C)c(F)c4)cc3c2=O)cc1 2.15%
COc1ccc(N2CCN(C(=O)c3nc(-c4ccc(Cl)cc4)n4c3CCCCC4)CC2)cc1 -6.17%
COc1ccc(NC(=O)c2nnn(Cc3ccc(Br)cc3F)c2N)c(OC)c1 -19.6%
O=C(C1CCN(S(=O)(=O)c2cccc3nonc23)CC1)N1CCN(c2ccccc2)CC1 -19.1%
CCOc1ccc(CNC(=O)c2ccc(CS(=O)c3ccccc3)o2)cc1 (stereo not given) -14%
CS(=O)(=O)N1CCc2cc(C(=O)N3CCN(c4ccc(F)cc4)CC3)ccc21 -8.58%
Cc1ccc(-n2c(SCC(=O)Nc3cccc(Cl)c3)nc3n[nH]c(C)c3c2=N)cc1 -30.5%
Cc1ccc(N2CC(NC(=O)c3ccc4c(c3)OCO4)CC2=O)cc1 (stereo not given) -10.8%
CC(=O)N1CCCc2ccc(NS(=O)(=O)c3ccc(F)cc3F)cc21 -1.31%
Cc1ccccc1NC(=O)Cn1nc(-c2ccc(F)cc2)c2cnc3ccccc3c21 -8.73%
Cc1cccc(C(=O)Nc2nc(-c3ccc(Br)cc3)ns2)c1 5.84%
COc1cc(C(=O)N2CCc3c([nH]c4ccccc34)C2c2ccccc2)cc(OC)c1OC (stereo not given) -40.9%
CN=C(NC#N)NCCSCc1csc(N=C(N)N)n1 -7.71%
CCOC(=O)C1CCN(C(=O)Cn2ncc3c([nH]c4ccc(C)cc43)c2=O)CC1 -2.87%
CC(=O)N1CCC2(CC1)OC(=O)C(C)=C2C(=O)Nc1ccccc1C(F)(F)F -11.6%
Cc1cccc(N(CC(=O)NCCSc2ccc(Cl)cc2)S(=O)(=O)c2ccccc2)c1C -26.6%
CCCC(=O)OC[C@@H](OC(=O)CCC)[C@@H](OC(=O)CCC)[C@H](Cn1c2nc(=O)[nH]c(=O)c-2nc2cc(C)c(C)cc21)OC(=O)CCC -16%
CN(C)CCN1C(=O)c2ccccc2N(C)c2ccccc21 -2.32%
CCCC(=O)O[C@]1(C(=O)COC(=O)CC)CC[C@H]2[C@@H]3CCC4=CC(=O)CC[C@]4(C)[C@H]3[C@@H](O)C[C@@]21C -3.45% [at 25.1 µM, percent change from vehicle, -100% = no light]
CC(S)C(=O)NCC(=O)O (stereo not given)
COc1ccc(OC)c(C(O)CNC(=O)CN)c1 (stereo not given) 3.31%
CSc1ncc(C(=O)N2CCN(c3ccc(F)cc3)CC2)c(C)n1 -8.02%
Cc1ccc(C)c(N2CCN(C(=O)c3cc(S(=O)(=O)N4CCCC4)cn3C)CC2)c1 -21.8%
COc1cccc(-c2nn(C)c3sc(C(=O)N4CCN(c5cccc(C)c5)C(C)C4)cc23)c1 (stereo not given) -34.9%
COc1ccccc1CCNC(=O)Cn1ccc2cc(S(=O)(=O)N3CCCCCC3)ccc21 -35.7%
CCc1nnc(SCc2nc(-c3ccc(OC)cc3)oc2C)c2cc3sccc3n12 -10.9%
CCOC(=O)C1CCC(CN(Cc2c(Cl)cccc2Cl)S(=O)(=O)c2ccc(F)cc2)CC1 (stereo not given) -22.9%
COc1ccc(N2CCN(C(=O)c3ccc4c(c3)CCN4S(C)(=O)=O)CC2)cc1 18.4%
CCSc1nc2c(c(=O)[nH]c(=O)n2C)n1CC(O)COc1ccc(Cl)cc1 (stereo not given) -19.3%
Cc1ccc(C)c(S(=O)(=O)c2nnn3c2nc(Nc2ccc(F)c(Cl)c2)c2sccc23)c1 -10.4%
Cc1c(Cl)cccc1NC(=O)Cn1nc(C)c2sc3ccccc3c2c1=O 3.71%
Cc1nc(SCC(=O)Nc2ccc(Br)cc2)[nH]c(=O)c1Cc1ccccc1 -32.7%
Cc1ccc(S(=O)(=O)CCC(=O)N2CCN(c3nc4c(C)c(Cl)ccc4s3)CC2)cc1 -14.7%
Cc1ccc2c(c1)N(C(=O)N1CCC(C(=O)NCc3ccco3)CC1)CC(C)O2 (stereo not given) -8.91%
CCCCOC(=O)c1ccc(NC(=O)Cc2coc3ccc(C(C)C)cc23)cc1 -82.2%
CCc1ccc(OCC(=O)NCc2nc(-c3cccc(C)c3)no2)c(Br)c1 -18.2%
COc1ccc(CCN2C(=O)N(c3ccc(F)cc3)C(=O)C2CC(=O)Nc2ccc(F)c(F)c2)cc1 (stereo not given) -6.51%
CCOc1ccc(N(CC(=O)NCc2ccc(Cl)cc2)S(=O)(=O)c2c(C)noc2C)cc1 -5.57%
Cc1ccc(C(=O)Nc2ccc(OCc3cc(=O)n4c5c(sc4n3)CCCC5)cc2)cc1 -4.39%
CC(C)[N+]1(C)[C@@H]2CC[C@H]1CC(OC(=O)C(CO)c1ccccc1)C2 (stereo not given in full) -21.6%
Cc1c(NC(=O)c2ccc(N3CCC(C)CC3)c([N+](=O)[O-])c2)cccc1-c1nc2ccccc2o1 -1.26%
Cc1cccc(N2CCN(C(=O)c3oc(=O)c4ccccc4c3-c3ccccc3)CC2)c1C -6.01%
Cc1cc(NC(=O)Nc2csc3c2CCCC3)ccc1Br -82.2%
Cc1ccccc1NC(=O)CN1C(=O)CCn2nc(-c3cccn3C)cc21 -7.69%
Cc1sc2c(c1C)c(=O)n(-c1cccc(C(F)(F)F)c1)c(=O)n2Cc1ccccc1C#N 13.4%
CCCCn1c(-c2ccc(C)cc2)c(C)n2c3c(=O)n(C)c(=O)n(C)c3nc12 -1.61%
Cc1ccccc1-c1noc(CSc2nnc(-c3ccncc3)n2-c2ccc(F)cc2)n1 -22.1%
Cc1ccc(OCCCCn2c(CCNC(=O)C(C)(C)C)nc3ccccc32)cc1 -26.8%
CCOc1ccc(N(CC)C(=O)CSc2n[nH]c(-c3ccccc3)n2)cc1 -37%
Cc1ncc(CO)c2c1Oc1nc(-c3ccccc3)nc(SCC(=O)Nc3cccc(C(F)(F)F)c3)c1C2 -19.2%
CCn1cc(C(=O)NCc2ccccc2Cl)c(=O)c2cc(S(=O)(=O)N3CCCCC3)ccc21 10.6% [at 11.5 µM, percent change from vehicle, -100% = no light]
O=C(CSc1n[nH]c(-c2ccccc2Cl)n1)N1CCN(c2ccccc2F)CC1 -22.9%
O=C(Cc1ccccc1)Nc1cccc(-c2nc3cccnc3s2)c1 13.1%
COc1ccc(-c2coc3c2c(C)cc2oc(=O)cc(C)c23)cc1 -7.07%
Cc1oc(-c2ccc(C(=O)NCc3ccccc3)cc2)nc1CS(=O)(=O)c1ccccc1 0%
O=C(NC1CCCC1)c1ccc2c(c1)N(Cc1ccccc1F)C(=O)c1ccccc1S2 -19.3%
CCOC(=O)c1c(C)oc2nc(C)nc(NC(C)c3ccccc3)c12 (stereo not given) -20.6%
CC1=C(C(=O)OCc2ccc(C)cc2)C(c2ccccc2Cl)CC(=O)N1 (stereo not given) -45%
CNC[C@H](O)c1ccc(O)c(O)c1
Cc1cccc(OCC(=O)Nc2ccc3c(c2)nc(CCNC(=O)c2ccco2)n3C)c1 2.27%
Cc1nc2c3ccccc3nc(NNC(=O)CCC(=O)N3CCN(c4ccccc4)CC3)n2n1 -17.4%
Cc1cc(C)cc(NC(=O)c2sc3nc(-c4cc5ccccc5oc4=O)[nH]c(=O)c3c2C)c1 -2.58%
COC(=O)c1c(C)sc(-c2c(-c3cccc(Cl)c3)[nH]c3c2c(=O)[nH]c(=O)n3C)c1O -15.2%
O=C(NCc1ccccc1)c1csc(Nc2ccncn2)n1 -19.8%
Cc1cccc(N(C)C(=S)Oc2ccc3c(c2)CCC3)c1 -20.9%
COc1ccc(CCNC(=O)CCc2c(C)nc3c(c(C)nn3-c3ccccc3)c2C)c(OC)c1 -1.46%
Cc1ccc(OCc2ccc(-c3nc(C#N)c(N4CCC(C)CC4)o3)o2)cc1 -14.4%
COc1ccc(-c2noc(N3CCN(c4cccc(C)c4C)CC3)n2)cc1OC -33.1%
CCc1cccc(C)c1NC(=O)C(C)Sc1nc2c(c(=O)[nH]1)CCCC2 (stereo not given) -35.1%
COc1ccccc1C(=O)Nc1nnc(SCc2cc(=O)n3ccc(C)cc3n2)s1 19.6%
CCCNC(=O)CCC(=O)N1Cc2ccccc2Oc2ncccc21 -2.18%
COc1ccc(C(=O)CN2C(=O)N(c3cc(C)ccc3C)S(=O)(=O)c3ccccc32)cc1 -23.2%
CCc1ccccc1NC(=O)C1CCN(C2=NS(=O)(=O)C(c3ccc(C)c(C)c3)=C2C)CC1 -32.4%
C=CC(=O)Nc1cc2c(Nc3ccc(F)c(Cl)c3)ncnc2cc1OCCCN1CCOCC1 -40.8%
CC(C)(C)NCC(O)COc1cccc2c1CCC(=O)N2 (stereo not given) 3.45%
CCOC(=O)C1CCN(C(=O)CCS(=O)(=O)c2cc3c(cc2Cl)NC(=O)CO3)CC1 -10.1%
Cc1ccc(CSc2ncc(Cl)c(C(=O)NCCc3ccc(S(N)(=O)=O)cc3)n2)cc1 -13.6%
Cc1ccc(N(CC(=O)NCc2ccc(Cl)cc2)S(=O)(=O)N(C)C)cc1 19.9%
COC(=O)[C@H](CCCN=C(N)N)NS(=O)(=O)c1ccc(C)cc1 -2.25%
COc1ccc(NC(=O)CSc2nc(-c3ccc(OC)cc3)[nH]c2-c2ccc(OC)cc2)cc1 -21.4%
